# Laboratory results as given in the supplement of paper PMC10338343.
# ± gives the standard deviation. The list shows a part of the results, in another mix than the full data.
# Test system: MIWI (PIWIL1) piRISC loaded with piRNA #1 (30 nt)
# Experiment: pre-steady-state target cleavage rate (min^-1); MIWI and MILI are mouse PIWI proteins and EfPiwi is from a freshwater sponge; tags in brackets are library labels; higher = faster piRNA-guided slicing of the target
# Conditions: guide: piRNA #1 5'p-UGAGGUAGUAGGUUGUAUAGUAUCCAGAGG; auxiliary factor: 500 nM mouse GTSF1
# Method in brief: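 The pre-steady-state cleavage rate was calculated from a burst-and-steady-state fit. Data came from Cleave-'n-Seq, in which […] transcribed, DNA-blocked target RNA library was mixed with 1 nM active affinity-purified piRISC carrying one synthetic guide, with or without 500 nM GTSF1 partner protein, in HEPES–potassium acetate buffer at 33 °C for 0–8 or 0–960 min. Uncleaved targets were sequenced and normalised to depth and to weakly complementary targets, three trials were pooled, and k3 was capped at 0.0001 min^-1.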
# 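Further: 1 nM active piRISC with 0.1 nM target library at 33 °C single turnover.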
row,Sequence,pre-steady-state target cleavage rate
1,GGAGACGAUACUAUUCAACCUACUUCCUCA,0.197 ± 0.039
2,CGUGUGGAUACUAUACAACCUACUACCUCA,0.694 ± 0.033
3,CCUCUGGUUACUAUAGAACCUACUACCUCA,0.623 ± 0.059
4,GGAGUGGAUACUAUACAACCUACUCCCUCA,0.161 ± 0.019
5,CCUCUGGAUACAAUACAACCUACAACCUCA,1.52 ± 0.11
6,CCUCUGGAUACUCAUACAACCUACUACCUCA,1.54 ± 0.083
7,GGAGACCUUACUAUACAACCUACUACGACA,0.655 ± 0.062
8,GGACUGGAUACUUUACAACCUACUACCUGA,0.287 ± 0.069
9,GGAGACCUUACUAUACUACCUACUUCCUCA,0.0648 ± 0.013
10,GGAGAGGAUUCAAUACAACCUACUACCUCA,0.735 ± 0.05
11,GGAGAGGAUAGAUUACAACCUACUACCUCA,0.178 ± 0.019
12,GGAGACCUAACUAUCACAACCUACUACCUCA,0.27 ± 0.038
13,CCUCUGGAUACUAUACAUGGUACUACCUCA,0.0547 ± 0.0094
14,GGAGACCAUACUAAAGAACCUACUACCUCA,0.246 ± 0.026
15,GGAGACGAUACUAAACAACCUACAACCUCA,0.692 ± 0.057
16,GGAGAGGAUACUAAACAACCUACAACCUCA,0.744 ± 0.074
17,GGAGACCUAUCUAUAUCAACCUACUACCUCA,0.00322 ± 0.0028
18,CCUCUGGAUAGUAUACAACCUACAACCUCA,1.06 ± 0.079
19,GCUCUGGAUACUAUACAACCUACUUCGUCA,0.328 ± 0.045
20,CCUCUGGUUACUAUACAAGCUACUACCUCA,0.776 ± 0.028
21,GGACAGGAUACUAUACAACCUACUACGUCA,0.643 ± 0.057
22,GGAGACCUUACUAUACAUCCUUCUACCUCA,0.163 ± 0.015
23,GGUCUGGAUACUAUACAACCUACUACGACA,0.34 ± 0.045
24,GGAGACGAUACUAUACAAGCUACUUCCUCA,0.628 ± 0.033
